Z-score data for 73 molecules are collected here from PubChem BioAssay AID488969 (Vanderbilt High Throughput Screening Facility, 2010).

Structures are written as SMILES. Whole data set: some 110,000 compounds, median “z-score” near -0.1, cut for the highest 2% near 2. Some of the results follow. The source made the active and inactive calls.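 How the source made its calls: active means z-score in the third read window above 3 or below -3; inactive means the rest.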

The target in the assay is Metabotropic glutamate receptor 8 (Rattus norvegicus) (UniProt P70579). As to the kind of experiment: mGluR8 Gi/Go-coupled signaling modulation – cell-based, rat, thallium flux, HTS, primary screen (AID 488969). The following applies: HEK293 rat mGluR8, GIRK (G protein-gated inwardly rectifying potassium channel) thallium flux, FluoZin2; at 10 µM; stronger effect = higher value; submaximal glutamate (EC20) added with thallium.
Chain of UniProt P70579 (P70579 whole entry, looked up): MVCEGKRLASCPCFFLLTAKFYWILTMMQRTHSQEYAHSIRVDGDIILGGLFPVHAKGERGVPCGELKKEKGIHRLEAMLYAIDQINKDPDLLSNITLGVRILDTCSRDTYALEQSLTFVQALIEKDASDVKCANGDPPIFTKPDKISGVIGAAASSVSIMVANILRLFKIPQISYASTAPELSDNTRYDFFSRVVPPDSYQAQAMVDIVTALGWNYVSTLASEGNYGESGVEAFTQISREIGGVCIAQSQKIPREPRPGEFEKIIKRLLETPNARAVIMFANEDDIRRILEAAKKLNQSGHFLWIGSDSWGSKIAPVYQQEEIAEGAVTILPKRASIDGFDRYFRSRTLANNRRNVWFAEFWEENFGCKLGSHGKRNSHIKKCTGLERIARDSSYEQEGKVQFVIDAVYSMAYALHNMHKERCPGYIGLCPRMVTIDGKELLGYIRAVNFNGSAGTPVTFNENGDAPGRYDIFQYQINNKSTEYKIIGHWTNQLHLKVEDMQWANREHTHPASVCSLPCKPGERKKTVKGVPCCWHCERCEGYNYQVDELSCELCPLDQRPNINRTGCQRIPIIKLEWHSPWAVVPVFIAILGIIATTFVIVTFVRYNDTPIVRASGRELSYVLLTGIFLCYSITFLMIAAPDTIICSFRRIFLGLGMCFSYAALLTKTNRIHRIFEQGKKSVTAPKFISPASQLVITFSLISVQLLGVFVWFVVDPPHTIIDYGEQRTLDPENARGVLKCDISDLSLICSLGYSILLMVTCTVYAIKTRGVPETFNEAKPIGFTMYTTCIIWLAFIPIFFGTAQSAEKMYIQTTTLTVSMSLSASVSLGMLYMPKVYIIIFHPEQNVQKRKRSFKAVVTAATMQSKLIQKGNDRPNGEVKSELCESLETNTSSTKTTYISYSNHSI
With `O=C(c1cc2c(s1)CCCCC2)N1CCN(c2ncccn2)CC1`, the z-score is -0.923.
The molecule `CC(C)OC(=O)CC(=O)CSc1nc(-c2ccc(F)cc2)cc(-c2ccccc2)c1C#N` had a z-score of 0.0859.
To `Cc1cc(NC(=O)c2cc3n(n2)C(C(F)(F)F)CC(c2ccco2)N3)n(-c2ccccc2)n1` (stereo not drawn) belongs -0.368; to `COC(=O)c1cn(CC(=O)NC2CCCCCC2)c2ccccc12`, -0.191.
The same measure for `CCOC(=O)c1ccc(NC(=O)Nc2ccc(OC)c(OC)c2)cc1`: active: 6.79; for `CCOC(=O)c1ccc(NCc2ccc3c(c2)OCO3)cc1`: 0.158; for `O=C(Nc1cccc(Oc2ccc3c(c2)C(=O)NC3=O)c1)c1cccs1`: 0.83.
The same measure for `CC(C)(C)C(=O)Nc1cccc(-c2nc3ccccc3c(=O)o2)c1`: -1.19; for `O=C(NCCOc1ccccc1Cl)C(=O)Nc1ccccc1`: -0.00117.
In turn, `CC(=O)Nc1nc(SCCCc2ccccc2)n[nH]1` registered a z-score of 0.0586.
To `COCCn1c(SCC(=O)Nc2cccc(S(N)(=O)=O)c2)nc2ccccc21` belongs -0.157; to `C=CCNc1oc(-c2ccc(OCC)cc2)nc1C#N`, 0.0195.
The same measure for `Fc1ccc(NCc2cccnc2)cc1`: 0.127.
The same measure for `COc1cccc(C2C=C(Nc3ccccc3)C(=O)N2c2ccccc2)c1` (stereo not drawn): -0.22.
As to `Cc1cccc(S(=O)(=O)N(CC(=O)Nc2ccccc2C)Cc2ccco2)c1`, the z-score is -0.15.
The same measure for `CN(c1ccc(C(=O)Nc2ccccc2Sc2ccccc2)cc1)S(C)(=O)=O`: -0.6; for `C=C(C)CSc1nnc(-c2ccc(OC)cc2)n1N`: -0.0581.
`Cc1csc(N(C(=O)c2cccc(S(=O)(=O)N(C)C)c2)c2ccccc2)n1` gave a z-score of 2.2.
The same measure for `CC(C)Oc1ccc(/C=N/NC(=O)C2CCCN2S(=O)(=O)c2ccc(Cl)cc2)cc1` (stereo not drawn): -0.222.
The same measure for `O=C(Nc1ccc(F)cc1)c1cnc(-c2ccccc2)nc1-c1ccccc1`: -0.358; for `Cc1ccc(-n2nnnc2SCC(=O)N2c3ccccc3NC(=O)C2(C)C)cc1`: 1.5; for `CCOC(=O)/C(=N\Nc1ccc(C(C)=O)cc1)c1csc(Nc2ccccc2)n1`: -0.306.
The same measure for `COc1ccc(-c2c(-c3ccc(OCC(=O)NN)cc3O)n[nH]c2C(F)(F)F)cc1`: -0.219; for `Nc1cc(N)nc(SCC(=O)c2ccccc2)n1`: -0.52.
Molecule `CC(C)OP(=O)(OC(C)C)C(Nc1ccccc1)c1ccc2c(c1)OCO2` (stereo not drawn) gave a z-score of -0.575.
Consider `CCCn1cc(NC(=O)c2cc(-c3ccccc3)on2)cn1`, for which the z-score was active: 13.
The same measure for `Cc1nc2c(=O)n(C)c(=O)[nH]c2n1Cc1ccccc1`: 0.949.
The same measure for `O=S(=O)(Nc1ccc(Oc2ncccn2)c(Cl)c1)c1ccc(Cl)cc1`: 0.13; for `COc1cccc(/C=N/NC(=O)c2ccc(-c3ccccc3)cc2)c1O`: -0.388.
The same measure for `O=C(CNC(=O)c1ccccc1F)NCCOc1ccccc1Cl`: -0.065; for `CSc1nc2sc3c(c2c(=O)n1C)CCC(C)C3` (stereo not drawn): -0.327; for `CCC(=O)NC(=S)Nc1cccc(NC(=O)c2ccc(Cl)cc2Cl)c1`: 0.179.
Take `C[N+]1(C)CCC(=C2c3ccccc3CC(=O)c3sccc32)CC1`: the z-score is 0.586.
The same measure for `CCOC(=O)c1sc2nc(C)cc(C)c2c1NC(=O)c1ccco1`: -0.351; for `O=C(Cc1cccs1)N1CCC(c2nc3c(nnn3Cc3ccccc3Cl)c(=O)[nH]2)CC1`: -0.576.
Regarding `O=S(=O)(Nc1ccc2c(c1)OCO2)c1ccc(Br)s1`, the z-score was -0.167.
To `C/C(=N/NC(=O)c1ccncc1)c1cc2ccc(O)cc2oc1=O` belongs -0.853; to `CCCn1c(C)nc2c(c1=O)c1nc3ccccc3nc1n2CCc1ccccc1`, -0.0747.
The same measure for `COc1ccc(NS(=O)(=O)c2cc(S(C)(=O)=O)ccc2C)cc1`: -0.235.
To `Cc1cc(-c2n[nH]c(=S)n2CC(C)C)cs1` belongs -0.405; to `Cc1cc([N+](=O)[O-])cc2ncccc12`, -0.00222; to `O=C(CSc1ncn[nH]1)NCCc1ccccc1`, -0.498.
As for `CCOC(=O)N1CCN(c2cc(=O)n(-c3ccc(Br)cc3)c(=O)[nH]2)CC1`, the z-score is -0.0571.
To `COc1ccc(S(=O)(=O)Nc2ccc3ccccc3c2)cc1C` belongs 1.03; to `CC1=CCC2C(=O)N(Cc3ccccc3)C(=O)C2C1` (stereo not drawn), 0.201; to `COc1ccc(Oc2coc3cc(OC(=O)N4CCOCC4)ccc3c2=O)cc1`, -0.0315.
For `NC(=O)CSc1nc2c(sc3ccccc32)c(=O)n1CCCN1CCOCC1`, the z-score was 0.869.
To `O=C(C(=O)N1CCc2ccccc2C1)c1cn(CC(=O)N2CCCC2)c2ccccc12` belongs -0.571; to `COc1ccc(NC(=O)Cn2nc(C(F)(F)F)c3c2CCCC3)cc1OC`, 0.0715.
The same measure for `COc1ccccc1NC(=O)CCSc1nnnn1C`: 1.32.
The same measure for `CN(C)S(=O)(=O)N(CC(=O)Nc1ccccc1)c1ccccc1`: 0.311.
Turning to `OC1C=CSc2nc3ccccc3n21` (stereo not drawn), the z-score was -0.0235.
As for `Cc1nnc(SCC(=O)Nc2nc(C(C)(C)C)cs2)s1`, the z-score was -0.16.
The same measure for `CCOc1ccc(N(CC(=O)NCc2cccc(OC)c2)S(=O)(=O)c2c(C)noc2C)cc1`: -0.132.
In turn, `CCc1ccc(NC(=O)C2CC=CCC2C(=O)O)cc1` (stereo not drawn) had a z-score of 1.44.
The same measure for `O=C(Cn1cc2c(n1)CCCC2)NCCCN1CCN(c2ccccc2F)CC1`: -0.167.
To `COc1ccc(Nc2nnc(Cc3ccccc3)c(=O)[nH]2)c(OC)c1` belongs 1.92.
To `COc1ccc(S(=O)(=O)N(CC(=O)NC2CC2)c2ccc(C)cc2)cc1OC` belongs -0.013; to `CNC(=S)NNC(=O)Cc1ccc(OC)c(OC)c1`, -0.464; to `C=CCSc1nc2ccccc2c(=O)[nH]1`, -0.169.
Regarding `CC(CN1CCN(C)CC1)OC(=O)c1ccc(Cl)cc1` (stereo not drawn), the z-score was 1.05.
The same measure for `Nc1ncc(Br)cc1S(=O)(=O)NCCC(=O)N1CCN(c2ncccn2)CC1`: -0.173; for `CCOc1ccc(N2C(=O)CC(n3nc(C)cc3C)C2=O)cc1` (stereo not drawn): 0.0925; for `CCOC(=O)c1ccc(NC(=O)NCc2ccncc2)cc1`: -0.0612.
Turning to `COc1ccccc1NC(=O)COc1ccccc1C(=O)c1cnn(-c2ccccc2)c1`, the z-score was -0.425.
To `COCCNC(=O)Nc1ccc2c(c1)N(C)C(=O)CS2` belongs -0.0391.
The same measure for `COc1ccccc1CNCc1ccc(OC)c(OC)c1OC`: 2.07.
To `Cc1ccc(C(C)C)c(OCc2nc(-c3nonc3N)no2)c1` belongs 0.353; to `Cc1c(Cl)cccc1NC(=O)CCN1CCCCCC1`, 0.221; to `COc1ccc(C(=O)Cc2cc(OC)c(OC)cc2[N+](=O)[O-])cc1`, 0.0666.
`COc1ccc(N=C2S/C(=C\c3ccc(C)o3)C(=O)N2CC(C)C)cc1` came in with a z-score of -0.143.
To `O=c1c2cnn(-c3ccccc3Cl)c2ncn1Cc1cccnc1` belongs -0.445; to `Cn1c(NCCCO)nc2c1c(=O)n(Cc1ccccc1F)c(=O)n2C`, -0.16.
